Laboratory results as given in the supplement of paper PMC3334620.
Whole data set: some 33,000 sequences, median “E-score (-0.5 to 0.5)” near -0.012, cut for the highest 2% near 0.29. The list shows a part of the results.

molecular target: T1, Ybr033w (UniProt P38073); test: PBM E-score (8-mer binding enrichment) (E-score (-0.5 to 0.5)); higher = stronger / more preferred TF binding; most listed sequences are background and not binding sites; conditions: protein concentration: 200 nM; construct: GST-full length
T1 sequence: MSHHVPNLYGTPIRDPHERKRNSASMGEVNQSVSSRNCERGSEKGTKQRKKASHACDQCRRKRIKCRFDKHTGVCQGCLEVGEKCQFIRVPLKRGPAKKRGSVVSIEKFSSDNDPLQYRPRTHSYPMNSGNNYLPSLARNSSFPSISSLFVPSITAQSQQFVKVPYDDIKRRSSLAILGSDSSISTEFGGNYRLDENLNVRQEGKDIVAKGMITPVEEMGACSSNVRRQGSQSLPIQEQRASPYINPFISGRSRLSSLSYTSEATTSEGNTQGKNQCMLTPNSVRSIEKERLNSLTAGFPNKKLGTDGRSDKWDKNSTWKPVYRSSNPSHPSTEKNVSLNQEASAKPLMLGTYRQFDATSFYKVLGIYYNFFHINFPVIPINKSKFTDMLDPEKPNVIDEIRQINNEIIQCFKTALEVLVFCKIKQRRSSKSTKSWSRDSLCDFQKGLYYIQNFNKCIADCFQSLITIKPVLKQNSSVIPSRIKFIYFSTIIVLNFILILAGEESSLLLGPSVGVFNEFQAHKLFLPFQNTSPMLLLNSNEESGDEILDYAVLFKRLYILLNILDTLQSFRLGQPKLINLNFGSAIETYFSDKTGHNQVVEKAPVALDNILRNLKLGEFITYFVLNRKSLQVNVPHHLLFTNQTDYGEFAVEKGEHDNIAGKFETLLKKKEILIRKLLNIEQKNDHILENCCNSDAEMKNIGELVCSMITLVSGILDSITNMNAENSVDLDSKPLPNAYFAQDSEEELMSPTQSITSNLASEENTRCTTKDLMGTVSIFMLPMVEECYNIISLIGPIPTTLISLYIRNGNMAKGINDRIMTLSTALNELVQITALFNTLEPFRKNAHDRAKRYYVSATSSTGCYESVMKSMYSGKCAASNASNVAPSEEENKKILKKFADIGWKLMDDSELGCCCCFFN
Method in brief: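 Bound GST-tagged yeast transcription factors, applied at about 100-200 nM to double-stranded universal all-10-mer Agilent arrays, were detected with fluorescent anti-GST. Scans were normalised with masliner. A modified Wilcoxon-Mann-Whitney statistic, the E-score, was assigned to each ungapped eight-base word pooled with its reverse complement by the Universal PBM Analysis Suite.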

Sequence	PBM E-score
CCAGCTAG	-0.177
ATACAGGG	0.0175
CTCTACTA	0.0534
CAGTCTCG	-0.174
ATACGCGA	0.0373
CCGATGCA	-0.0724
AATACGAT	0.174
GTTGGCGA	-0.0105
CCGGATCA	0.345
ACACTTAT	0.0459
CACTTCAG	-0.0545
AATCCTCT	-0.0219
ACCGTACT	0.0718
ACCGTTGA	-0.0185
CTGACCCC	-0.349
CCACTCCC	-0.103
ATCTATAC	0.16
AACACAGC	0.17
CGGCTTGC	0.0511
GGTTGGGA	-0.154
CATATCGA	0.0399
CAGGCGGC	-0.29
CTCAACAC	0.111
AAGGTATG	-0.0197
ATTCGAGA	0.023

Sequence	PBM E-score
ACTTGTGA	0.0861
ACCCACCC	0.0336
CTCCCGCA	-0.136
GACATCAA	0.0415
GGTAGTAC	-0.0513
AACACAAG	0.097
TGAAAACA	0.142
AGAAAGCA	0.0775
GCCCGAAC	-0.226
ACTCCGTC	0.0421
AAGTGGGA	0.00518
CTCTCGGC	-0.0969
CCTCAACC	-0.198
AGCTAGCC	0.0418
GGAAGGAA	0.109
AGTCCCTC	-0.194
AAGCCTGC	-0.125
CCGCTGTC	-0.182
CACGTAAG	0.047
AAATACTA	0.224
AAATTTGC	0.108
CCAGCAAA	0.186
TATACCGA	0.0583
ATTGACAA	0.0273
CAATAGGG	-0.00615

Sequence	PBM E-score
ATAGCTGG	-0.0109
AGGGGCGG	-0.162
ACCTAGCG	-0.149
AAACCCAC	0.0996
ACATTGTC	0.187
CGAGTCCC	-0.111
CATGGGTA	-0.118
ATAATCAG	0.092
CGTATGAC	0.058
GTCTGGTA	-0.03
GAGGACCC	-0.165
TCTACCCA	0.0846
GGCTCGAA	-0.0492
GATGAAGC	0.00792
ACCATAGC	-0.038
AAAAATTC	0.228
ACACGTTA	-0.136
AAAAGCAC	-0.0355
CACCTCCA	-0.0297
CACGTGCG	-0.197
TAACAACA	0.174
ATTAGCCG	0.0285
CTTGTTGC	0.0201
CACTAATA	0.0444
AGACACCT	-0.207

Sequence	PBM E-score
AGCATGCA	-0.037
AGCTCTAA	-0.108
CTCAAGAG	0.00579
ATATTGTA	0.255
CCTTACCG	0.00572
ATGTAGAC	-0.0421
TAGGATGA	0.285
GTATTGTA	0.212
ATAGTTAG	0.172
CAATGATC	0.0568
ATTGGACA	0.119
ATAGTACG	0.147
CATCGATG	0.0683
AAGCCAAG	-0.0174
CTGCGACA	0.0412
GGGCTACC	-0.267
CACACGGA	-0.111
CCACGGGC	-0.294
AGATTAAC	0.199
ATACCAGG	0.0791
GTTTAAGA	-0.0128
ACAATTGA	0.205
ACGCAGAA	-0.0292
ACCGCAGC	-0.194
AGTTTGAA	0.196

Sequence	PBM E-score
CTCTCAGC	-0.257
CCCGCTCG	-0.27
ATCACTCG	0.0344
CCAGGATC	-0.0843
CCTAAAGG	-0.189
GTTTTAGA	0.113
AGCTGCAG	-0.0809
AGACTGCA	-0.156
AGCAGGTC	-0.151
AACAGGAA	0.107
CATCTGTC	-0.235
CCCAAATC	0.0208
CCAGTCCA	-0.173
GGAGCGCC	-0.27
CCTCCGAC	-0.349
CCACTACC	-0.149
CTAACACA	0.198
CCCGAGCC	-0.145
ATGTTAGA	0.0352
CTATTATA	0.125
AAGCACTA	0.111
TATTGGCA	0.0828
CACTAGGA	-0.129
GCTCCTTA	0.0831
AACTACGA	0.111

Sequence	PBM E-score
TCGCCCCA	-0.239
CTCGACCC	-0.281
TATCTGAA	0.14
AAGACGGA	0.0226
AATTTCGA	0.0715
ATAGGAGC	-0.187
GAAGAGAA	0.155
CTAGACAC	0.00532
GTAGATTA	0.216
TGCAGGAA	0.0984
AAAAACCG	0.134
ATAGGCTA	-0.0312
CCTAATTC	0.145
GGACCCCA	-0.177
ACCTCTAC	0.04
CGGTGCAG	-0.204
GAGAGGTA	-0.223
CAACTTTC	0.024
GTTAACAA	0.0731
AACAGTTC	0.107
CTCTTTGC	-0.202
GCCTCCGC	-0.146
ACTCGACG	0.104
CCTCGGAC	-0.165
GCGCCAAA	-0.031

Sequence	PBM E-score
GTCGCACA	-0.0673
CCGATTAA	0.154
GCCGTCCC	-0.219
CGTAACCC	-0.0532
AATACTTC	0.21
CATTGTCC	0.0695
ACATCGTC	-0.0688
AGTAAACG	0.0923
CAAATCAC	-0.035
AGATGCCT	0.0174
CGATGAAA	-0.00643
CATATGGG	-0.0459
GACACCCC	-0.269
AGGACAGC	-0.0246
CACTAACC	0.0389
ACAAGTGA	0.0353
CGAAGTGA	-0.0303
AAGACGAT	0.0718
ATGAGCAA	0.161
GCGTACTA	-0.0448
AGCGCGCC	-0.186
AGGGACCA	-0.251
